From the supplement of paper PMC10126150
Sequences with one replicate were seen in a single cluster, so their values are uncertain.

Tested on: ATP
Test: switch fluorescence ratio, 500 uM ATP over buffer (Cy3 cluster intensity, sum of 5 cycles each) (fold (ratio)); higher = stronger signal-on switching upon ATP binding; sequences stand for … in TCGTCGGCAGCGTCAGATGTGTATAAGAGACAGTTTTTTTTTTTTTTTTTTTTTTTTT…TC
Settings: aptamer strand: ATP DNA aptamer (quencher-CACCTGGGGGAGTATTGCGGAGGAAGG + anchor), 100 nM annealed; ATP concentration: 500 uM; one replicate
Summary of the method: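 Clusters carrying Cy3-labelled switching strands on a modified Illumina MiSeq flow-cell were annealed to 100 nM quencher-labelled ATP aptamer and imaged in selection buffer. They were imaged again after 15 min with 500 uM ATP at 22 °C, over five buffer/ATP cycles with NaOH stripping and re-annealing in between. For each cluster, the fluorescence ratio is the summed Cy3 intensity of the target cycles divided by that of the buffer cycles, averaged per switch-domain sequence. Clusters outside 100-1000 RFU were left out.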
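Note: ATP exposure 15 min at 22 °C before imaging.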

| Sequence | switch fluorescence ratio |
| --- | --- |
| ACATATTTCG | 1 |
| TCTACTAAAC | 1.03 |
| ACACACAGCA | 1.28 |
| ACACGCCGT | 1.05 |
| ATATGTCTCC | 1.03 |
| TAGTTTCTCT | 0.989 |
| TAGATGGTAC | 1.03 |
| GCCGAGCAGC | 1.22 |
| AATTTCATAC | 1.02 |
| TCCTTTACAA | 1.35 |
| ACAAGTACTA | 1.31 |
| CCGTTTGCCT | 1.03 |
| TGAACCGGCA | 1.1 |
| CGCTTGAAGC | 1.03 |
| CGGAGGGAGC | 1.02 |
| CGGGCACACA | 1.04 |
| CTTTGATGAC | 0.986 |
| TTACTCGTAT | 1.05 |
| AGTAGCGTAT | 1.01 |
| TAAACCGACG | 1.49 |
| ATGCCAGAGC | 1 |
| TGCGTGCCTA | 1.03 |
| AGGTATAAAT | 0.962 |
| GAGGATTAGT | 1.02 |
| CCTACAGTG | 1.3 |
| TTAGTCGGTA | 0.992 |

| Sequence | switch fluorescence ratio |
| --- | --- |
| TTTACCTACC | 1.73 |
| GCATAGGCTG | 1.02 |
| TATCAACATC | 1.03 |
| AAACATTTAA | 1.01 |
| TCGTGTTGCT | 1.05 |
| CGCGTGTGTA | 1 |
| AGTTAAAGGA | 1 |
| GGGGCCTCCG | 1.28 |
| ATTCGGTGA | 0.999 |
| AAATAAGAAC | 1.16 |
| AGCACCTCTT | 1.03 |
| TCTCTACAAC | 1.14 |
| TTTTCGCAAG | 3.56 |
| AGATTTAAAA | 1.1 |
| GTTAGGGTC | 1.04 |
| ACAGAGAGAC | 1.03 |
| ATCCAGTTAA | 0.989 |
| AGTAGGCGTG | 0.982 |
| TGAAGTTAAC | 0.997 |
| TCTTGCCACT | 0.99 |
| AGTAGGTCTC | 1 |
| GTTGATTCCA | 1.01 |
| ATTAGCTACG | 0.993 |
| GTTTGACCGG | 1.02 |
| TAAAGAGGA | 0.927 |
| TCAACATTCC | 2.46 |

| Sequence | switch fluorescence ratio |
| --- | --- |
| TGAATAGTTC | 1.05 |
| AGGATGGCTA | 1.02 |
| GTTCAACCGT | 1.03 |
| ACGATGGGCT | 0.973 |
| ACTGGCCCAC | 1.1 |
| AACAAAGGAA | 0.994 |
| GCTATTCCGT | 1.03 |
| AACTACGAGA | 1.12 |
| GTATCAGCAT | 1.01 |
| ATGGTACCTG | 1.02 |
| ACAGTAGAGA | 1.03 |
| AAAAAATGAT | 1.03 |
| TTCAGGTCA | 1.01 |
| ACAGATATGG | 1.02 |
| TGTACTTACT | 1.23 |
| TAAAATCGCC | 1 |
| GAGTACGGAA | 1.37 |
| GAACACGAGC | 1.08 |
| GCGTAGCTGT | 1 |
| TAACTCTACT | 1.15 |
| TCCCCCTCTA | 1.07 |
| GTTCTGCCGG | 1.02 |
| CACAATTCT | 1.08 |
| ATGACGGGTA | 0.949 |
| ACAGACTGGT | 1.02 |
| ACTGGGTTCT | 0.984 |

| Sequence | switch fluorescence ratio |
| --- | --- |
| TATGAAGGTA | 0.942 |
| GGTGCGTACT | 1.01 |
| AATACTTTAG | 1 |
| AAACCTGCGA | 1.25 |
| TTGATCCCAA | 1.05 |
| CAGTGCTGAT | 0.953 |
| ACTCCACGAT | 4.2 |
| TTTTACAGGC | 0.981 |
| CGTTGGTTCG | 1.02 |
| CGTTCACATG | 1.03 |
| TGTGAATACG | 1.02 |
| GAGTGACATG | 1.05 |
| GCACGTTATC | 1.17 |
| AAATGGTG | 1.07 |
| CGTGCTTA | 1.01 |
| AGGCGGGTTA | 0.995 |
| GGTGGTTATG | 0.962 |
| TGGTAAGAAA | 0.982 |
| TCACGAGC | 1.05 |
| TACAATCAGA | 0.998 |
| AAGCCTTCAT | 1.25 |
| TTGCGAACGG | 1.01 |
| TTAAGACGTG | 0.984 |
| GAAATGGA | 0.998 |
| CGATGAATAT | 1.04 |
| ACATAAGGGA | 1.05 |

| Sequence | switch fluorescence ratio |
| --- | --- |
| ACCAGGAGGT | 1.05 |
| CAGTCTCCTA | 1.02 |
| CGTCCAGTAG | 1.13 |
| GTGTGAGCCG | 1.01 |
| TGGGCGCAGC | 0.981 |
| GATTGCTGTA | 0.981 |
| TTAGCGCGAA | 1.03 |
| GCATTGGGGA | 0.95 |
| GATTTGGTCG | 0.96 |
| AGTAAGTGCT | 0.994 |
| CACACGAAAG | 1.03 |
| CACACGACAA | 1.31 |
| TTATAAGCTC | 0.956 |
| CTACTAAATG | 0.939 |
| TAGCTTAATC | 1.07 |
| GCGTTGCGGT | 0.976 |
| CAAATGATGG | 1 |
| TACGTTGATG | 1.02 |
| ATATCTAGTA | 1.01 |
| TATGTGAAGA | 1.02 |
| GACTTGGTAT | 0.993 |
| TGTTATGGG | 0.972 |
| CTCCCTGTTG | 1.26 |
| CACTACTTTT | 1.02 |
| AGAATGGTCA | 1.03 |
| TGGCTCAAAG | 1.01 |

| Sequence | switch fluorescence ratio |
| --- | --- |
| ACGTTAACTT | 1.26 |
| CTTCTTGTAC | 1.18 |
| CGTTATCTTT | 0.981 |
| CCCAGCTGGT | 1.02 |
| GTAAATCATT | 0.967 |
| ACGGCATGCC | 0.965 |
| AGGAATAATT | 1.06 |
| CCACCAGCCG | 1.33 |
| GTGCGAATGT | 0.979 |
| AGTAATGCTC | 1.47 |
| TGATATGGTT | 0.95 |
| GCTGCCGGGA | 1 |
| CGCCCATCAG | 1.02 |
| AACGGTATG | 1.07 |
| GCGTAATCAA | 0.992 |
| TAATCAAAAT | 1.04 |
| AGCGGGCGCG | 1.01 |
| CTGGGGGTCC | 1.02 |
| TCGTACTGTT | 0.997 |
| GATAGTCATC | 1.02 |
| GACCAGTGTG | 1.14 |
| AAAAGGTCGA | 0.964 |
| ACAAGGACAT | 1.08 |
| GCTCGAGTAT | 1.01 |
| AGCTTTTCGT | 0.985 |
| CTTCGATCGC | 1.69 |

| Sequence | switch fluorescence ratio |
| --- | --- |
| CCGGTTGGTA | 0.989 |
| TAATCCTCAA | 1.13 |
| GTTATAACGA | 1.03 |
| AGCTCGATA | 1.01 |
| GTAACTCTCA | 1.03 |
| CGACCTATTT | 0.975 |
| GATTCTCGTC | 1.01 |
| AATAGAGAAG | 0.972 |
| CACAGTTTC | 0.984 |
| CGTGTCAATG | 0.972 |
| GATGGACCC | 1.03 |
| GTAGTTGCAT | 1 |
| ATTGCAATTG | 0.988 |
| AACGAGAAAG | 1.04 |
| AAAACTGGAG | 1.03 |
| GGCTTAGTAG | 0.993 |
| TGTTTTGGA | 0.935 |
| AGGAACGGGA | 1.05 |
| ACATGTTTCC | 1.02 |
| ATCCCTATAG | 1.08 |
| ATAGCTCGGT | 0.96 |
| GCTGGATGAT | 1.01 |
| GCTCCCCCCC | 1.34 |
| TACGAGAAGT | 1.04 |
| CTGAGAACAT | 1.02 |
| TCGTGAAGC | 1.01 |

| Sequence | switch fluorescence ratio |
| --- | --- |
| TGAGGCTGGA | 0.991 |
| AATTCTGTTA | 1 |
| ACCGACGATC | 2.05 |
| AAAACGCGCG | 0.972 |
| GAGCGAGAGG | 0.995 |
| CTAGTGCGAC | 1.06 |
| GTACGGGTTT | 1.02 |
| TTCATAATG | 1.01 |
| TCTTCATACC | 1.04 |
| TCTATACCGG | 1 |
| ATAACCCCAC | 1.26 |
| GGAACCTTCT | 2.44 |
| CCAAACTACG | 1.1 |
| AATTTGGATA | 1.01 |
| GTGGCCGTGT | 1.09 |
| AAGGCGATGA | 0.976 |
| TGTCAATCAT | 1.04 |
| TGGAAAGGAT | 0.968 |
| TCTTCCTATG | 1.4 |
